Experimental data taken from PubChem BioAssay AID434955 (Southern Research Specialized Biocontainment Screening …, 2010).
This is one part of the list. These are further read-outs of the screen, such as a control signal, another cell line or another target. No call is given for them. Most of these compounds were active or inconclusive in the main read-out, so they are no random draw.

Test: beta-lactam sensitization of Mtb H37Rv, H37Rv (AID 434955);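 also: growth measured after seven days incubation then overnight dye step; 0% = bacteria only wells and 100% = bacteria with antibiotic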
Details: M. tuberculosis H37Rv growth with meropenem, percent inhibition; measured here: primary screen without meropenem; at 25 µM

Structure (SMILES) | inhibition [%]
O=C(CCN1C(=O)/C(=C/c2ccccc2Cl)SC1=S)Nc1cccnc1 | 6.91
CCCCCOC(=O)c1ccccc1C(=O)O | -4.73
COCc1ccc(C(=O)N2CCCC(Nc3ccc(F)c(F)c3)C2)s1 (centres undefined) | 2.1
CC1CCCC(NC(=O)CN2C(=O)c3cccnc3Oc3ccc(Cl)cc32)C1C (centres undefined) | 6.7
CCc1ccccc1-n1c(-c2ccncc2)n[nH]c1=S | -3.23
Cc1nn(C)c(C(=O)N/N=C/c2ccncc2)c1Cl | 1.33
C/C(=N\Nc1cc(Cl)nc(C)n1)c1ccc(C)cc1 | 66.8
C=CCNC(=O)/C(C#N)=C/c1c(N2CCCCCC2)nc2ccccn2c1=O | -3.1
CC(=O)c1cnc(N2CCCCC2)nc1C | -0.67
O=C(NCCCCNC(=O)c1cccnc1)c1cccnc1 | -3.39
Cc1ccc2nc3c(cc(C(N)=S)c(=N)n3CCCOC(C)C)c(=O)n2c1 | 0.48
Cc1ccc(C)n1-c1nnc(N2CCC(C(=O)NCCCN3CCN(C)CC3)CC2)s1 | 0.64
O=c1[nH]nc(C(F)(F)F)c2nnn(Cc3ccccc3Cl)c12 | 8.59
COc1cc(CNCCO)cc(Br)c1OCc1ccccc1Cl | 22.8
Nc1nc(SCc2ccc(Cl)cc2Cl)nc2nc3c(cc12)CCCC3 | -5.06
O=C(OCn1nnc2ccccc2c1=O)c1ccc2c(=O)n3c(nc2c1)CCC3 | 58.4
Cc1ccc(C)c(NC(=O)C(Sc2nc3ccccc3c(=O)n2CC(C)C)c2ccccc2)c1 (centres undefined) | 11.2
CCc1cccc(NC(=O)C2CCCN2S(=O)(=O)c2ccc3c(c2)CC(C)N3C(C)=O)c1 (centres undefined) | -1.96
CCN(CC(=O)Nc1cc(Cl)ccc1C)C(=O)c1ccc(=O)n(Cc2ccccc2)n1 | -1.13
COc1ccc(N2C(=O)c3ccccc3NC2c2ccc(OC)c(Cn3nnc4ccccc43)c2)cc1 (centres undefined) | -3.53
CC1SCC(NC(=O)c2ccc(Cl)cc2)CS1 (centres undefined) | 11.5
Cc1cccc(NC(=O)[C@H](C)NC(=O)[C@@H]2Cc3ccccc3CN2C(=O)OC(C)(C)C)c1 | -13.4
Cc1ccc(OC(=O)c2cccc(S(=O)(=O)N3CCCC3)c2)c(-n2nc3ccccc3n2)c1 | -2.84
O=C(Nc1ccccc1)c1ccccc1Oc1ccc(C(F)(F)F)cc1[N+](=O)[O-] | 11.2
CN(C)c1ccc(/C=C/c2cc[n+]([O-])cc2)cc1 | 33.5
COC(=O)c1c(C)n(-c2ccccc2)c2ccc(O)cc12 | 49
COC(=O)c1cccc(NC(=O)CC2C(=O)NCCN2C(=O)Nc2ccccc2)c1 (centres undefined) | 5.64
CN(C)S(=O)(=O)N1CCC(n2nccc2NC(=O)CCc2ccccc2)CC1 | -4.65
COc1ccc(/C=C/CN2CCC(Oc3ccc(C(=O)N4CCCCC4)cc3)CC2)cc1 | 76.1
